Test results published in PubChem BioAssay AID1345083 (National Center for Advancing Translational Sciences (NCATS), 2018).
“And” between values parts separate entries of the source, which are not always exact repeats. Identical values can stand only once. Screen size: about 94,000 compounds; about 6,200 (6.6%) were called active. Inconclusive means that the source gave no clear call. Such entries were picked first, then a sample of the others. The call rests on the fitted dose curve; in most records, active means well fitted inhibition curve with a large enough effect; inconclusive means small, poorly fitted or top-dose-only effect; inactive means flat fitted curve, though single readings scatter. Potencies beside an inconclusive call are fits to weak or partial responses and may not hold up.

Test: Cytotoxic Profiling in HEK 293 Cell Line of Diverse Libraries Using Quantitative High-Throughput Screening; further: nearly all actives have a fitted effect of over 60% in size
Settings: HEK 293 viability, ATP luminescence (CellTiter-Glo), 48-72 h; series mostly up to 115 µM
How it was run: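 CellTiter-Glo luminescence (cellular ATP) was read after 48 or 72 hr of compound exposure at 37 degree Celsius. Cells were HEK 293 plated at 250 cells/well.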
Potency means the concentration at half of the fitted maximal effect; tags describe the fitted curve by direction and shape.

Row | SMILES | Potency
1 | CCNC(=O)N1CC(Oc2ccc(-c3nc(-c4ccccc4)no3)cc2)C1 | inconclusive: 44.7 µM [inhibitor, full curve, poor fit]
2 | O=C1NC2(CCCN(C(=O)c3ccc(C(F)(F)F)cc3)C2)COc2ccccc21 (centres undefined) | inconclusive: 56.2 µM [inhibitor, partial curve, poor fit]
3 | Cc1ccc(-c2nnc3ccc(N4CCCC4)nn23)nc1 | inactive
4 | Cc1cc(OCCN(C)C)c(C)c2c1CC[C@@H]([C@H](C)C(=O)NCc1ccccc1)C2 | active: 50.1 µM
5 | CO[C@H]1CN(C2CCN(C(=O)CCC3CCCC3)CC2)[C@H]1c1cccnc1 | inconclusive: 56.2 µM [inhibitor, partial curve, poor fit]
6 | N#CC1CCN(C(=O)C2CCN(c3nccc(Nc4ccccc4Cl)n3)CC2)CC1 | inconclusive: 50.1 µM [inhibitor, partial curve, poor fit]
7 | Cc1ccc(S(=O)(=O)Nc2ccc(C)n(CC(=O)N3CCOCC3)c2=O)cc1 | inactive
8 | Cn1cc(CN2C[C@H](C(=O)Nc3ccccc3)C[C@H]2c2cccc(C(F)(F)F)c2)cn1 | inconclusive: 100 µM [inhibitor, partial curve]
9 | CN(Cc1ccccc1)Cc1cc(CC2(NCc3ccccc3O)COC2)no1 | inconclusive: 100 µM [inhibitor, partial curve, poor fit]
10 | Cn1ccc(NC(=O)C(C)(C)Oc2nn(CC3CC3)c3ccc(CN4CCCC4)cc23)n1 | inconclusive: 100 µM [inhibitor, partial curve, poor fit]
11 | O=C(NCc1ccc(Cl)cc1)c1cn2cc(-c3cccc(C(F)(F)F)c3)sc2n1 | inconclusive: 89.1 µM [inhibitor, single point]
12 | Cc1ccc(CNC(=O)C2(CCO)CCN(c3ncccn3)C2)o1 (centres undefined) | inactive
13 | CCOc1ccc(C(=O)N[C@H]2CC[C@H]2NC2CCOCC2)cc1Cl | inconclusive: 79.4 µM [inhibitor, single point]
14 | COCc1ccc2c(c1)c(OC(C)(C)C(=O)NCCCn1ccnc1)nn2Cc1cccc(OC)c1 | inconclusive: 89.1 µM [inhibitor, single point]
15 | CCNC(=O)C1CCN(Cc2nc(-c3cccc(Oc4ccccc4)c3)oc2C)C1 (centres undefined) | inconclusive: 50.1 µM [inhibitor, partial curve, poor fit]
16 | COc1ccccc1-c1cccc(C(=O)NC(C)Cc2cc(C)[nH]n2)c1 (centres undefined) | inconclusive: 79.4 µM [inhibitor, partial curve]
17 | Cc1ccccc1CN1C[C@@H]2C[C@H]1C(=O)N(C)c1ccccc1O2 | inactive
18 | COc1ccc(CC2(CO)CCN(c3cc(OC)nc(N)n3)CC2)cc1 | active: 44.7 µM
19 | OCC1CN(C2CCC2)CC12CCN(Cc1cc(F)ccc1F)CC2 (centres undefined) | active: 39.8 µM
20 | COc1ccc(C(=O)NC[C@H]2O[C@H](Cc3cc(COc4ccccc4)on3)CC[C@@H]2O)cc1 | inconclusive: 35.5 µM [inhibitor, full curve]
21 | COc1ccc(C(=O)N2CCC3(CC2)CC(c2cccc(C(F)(F)F)c2)=NO3)cc1 | inconclusive: 50.1 µM [inhibitor, partial curve, poor fit] and active: 35.5 µM
22 | COc1ccc(Cn2c(C3CCN(C(=O)c4ccc(C)c(F)c4)CC3)n[nH]c2=O)cc1 | inactive

Row | SMILES | Potency
23 | Cc1onc(-c2cnn(C)c2NCc2ccc(C#N)cc2)c1C(=O)NCC1CCOCC1 | inactive
24 | CCCc1cc(C(=O)N2CCC(=O)N(CC3CC3)C(C(C)C)C2)cs1 (centres undefined) | inconclusive: 50.1 µM [inhibitor, partial curve, poor fit]
25 | O=c1c2nc(NCc3ccccc3)ccc2ncn1Cc1ccccc1 | inconclusive: 56.2 µM [inhibitor, full curve]
26 | O=C1CCN(S(=O)(=O)c2ccccc2)CCCN(C(=O)c2ccco2)CCN1 | inactive
27 | Cc1n[nH]c(C)c1CCC(=O)NC1CCCc2c1[nH]c1c(Cl)cccc21 (centres undefined) | inconclusive: 89.1 µM [inhibitor, single point]
28 | Cc1noc(C)c1[S+](=O)([O-])N1CCC(N2Cc3cccn3C2=O)CC1 | inconclusive: 100 µM [inhibitor, single point]
29 | CC(C)CCNC(=O)c1ccc2c(c1)CC(=O)N2Cc1ccccc1 | inconclusive: 89.1 µM [inhibitor, single point]
30 | CC1=NS(=O)(=O)N(Cc2ccccc2)C=C1C(=O)OCc1noc(CC2CCCCC2)n1 | inconclusive: 15.8 µM [inhibitor, full curve]
31 | OC[C@@H]1O[C@H](CNCc2ccc(F)cc2)[C@H](N2CCCC2)[C@@H]1O | inconclusive: 100 µM [inhibitor, partial curve, poor fit]
32 | Cc1ccc(C(=O)N2[C@@H]3CC[C@H]2CC(NC(=O)c2cnc(C)cn2)C3)cn1 (some centres undefined) | inconclusive: 79.4 µM [inhibitor, partial curve]
33 | O=C1CCCCC(CNC(=O)c2ccoc2)N1 (centres undefined) | inactive
34 | COC[C@H]1CCCN1C(=O)C[C@@H]1O[C@H](CNC(=O)c2ccco2)[C@@H](O)[C@H]1O | inconclusive: 100 µM [inhibitor, partial curve, poor fit]
35 | Cc1cccc([S+](=O)([O-])N2CCC3(CC2)OCCN(Cc2ccccc2)C3=O)c1 | inactive
36 | O=C(CC1=C2CCCCC2NC1=O)NCC1CC1 (centres undefined) | inactive
37 | CCOc1cccc(CN2CCc3c(c(CN(C(C)=O)c4ccccc4)nn3C)C2)c1O | inactive
38 | COc1ccc(C(=O)N2CCn3c(nn(-c4ccc(OC)cc4)c3=O)C2)cc1 | inactive
39 | CCn1nc(C)c(-c2cc(C(=O)NCC3Cn4cccc4C(=O)N3CCOC)no2)c1C (centres undefined) | inconclusive: 89.1 µM [inhibitor, single point]
40 | Cc1cc(C)c2[nH]c(C(=O)NCc3ccc(C(=O)N(C)C)o3)c(C)c2c1 | inconclusive: 89.1 µM [inhibitor, partial curve, poor fit]
41 | Cc1cccc(NC(=O)Nc2ccc(C)n(CC(=O)NCc3ccccc3Cl)c2=O)c1 | inconclusive: 89.1 µM [inhibitor, single point]
42 | NC(=O)Cc1c[nH]c2ncc(-c3ccc4c(c3)OCO4)cc12 | inactive
43 | CC#CC(=O)N1CCCC(C(=O)Nc2cccc(-c3cccc(C)c3)c2)C1 (centres undefined) | inconclusive: 50.1 µM [inhibitor, partial curve, poor fit]
44 | O=C(NCC1CC1)c1cn(C2CN(C(=O)NCCc3ccccc3)C2)nn1 | inactive

Row | SMILES | Potency
45 | O=S(=O)(c1ccccc1)N1CCCC(Cc2noc(-c3cccnc3)n2)C1 (centres undefined) | inconclusive: 79.4 µM [inhibitor, partial curve, poor fit]
46 | COc1cccc(CNC(=O)Cn2cccc2-c2nc(-c3ccc(F)cc3)no2)c1OC | inconclusive: 79.4 µM [inhibitor, single point]
47 | Cc1cc(C)cc(C(=O)NC2CCN(c3cc(-c4ccc(F)cc4)[nH]n3)C2)c1 (centres undefined) | inconclusive: 50.1 µM [inhibitor, partial curve, poor fit]
48 | CCn1ccc(C(=O)N2CCC3(CC2)CN(C2CCC2)CC3COC)n1 (centres undefined) | inactive
49 | O=C1COCC2(CN(c3ccc(C(F)(F)F)cn3)C2)CN1c1cccnc1 | inconclusive: 112 µM [inhibitor, partial curve, poor fit]
50 | COc1ccc(CCNC(=O)CC(c2cccc3c2OCO3)c2c[nH]c3ccccc23)cc1OC (centres undefined) | inconclusive: 44.7 µM [inhibitor, partial curve, poor fit]
51 | COc1ccc(C2Cn3nnc(C(=O)NCc4ccc(SC)cc4)c3CO2)cc1 (centres undefined) | inconclusive: 20 µM [inhibitor, full curve]
52 | O=C(NC1CCCN(CCn2nc3n(c2=O)CCCC3)C1)c1ccc(F)cc1 (centres undefined) | inactive
53 | CN1C(=O)C2(Cc3ccccc31)CN(C(=O)c1ccc(Cl)cc1)C2 | inconclusive: 89.1 µM [inhibitor, partial curve, poor fit]
54 | O=C(NCC1CN(C(=O)Cc2ccc(C(F)(F)F)cc2)CC12CN(c1ccccc1)C2)c1ccccc1 (centres undefined) | inconclusive: 50.1 µM [inhibitor, partial curve, poor fit]
55 | COc1ccc(-c2ccc3nnc(CNC(=O)c4cccn4C)n3n2)cc1 | inactive
56 | CCc1ncc(C(=O)NC(c2ccc(C)cc2)c2cccs2)cn1 (centres undefined) | inconclusive: 17.8 µM [inhibitor, full curve, poor fit]
57 | NC(=O)c1ccc(N2CCN(Cc3c(Cl)cncc3Cl)CC2)nc1 | inactive
58 | Fc1ccc(-c2cccc(CN3CC4CCC(C3)N4c3ccc(C(F)(F)F)cc3)c2)c(F)c1 | inconclusive: 8.91 µM [inhibitor, partial curve, poor fit]
59 | CCN1C(=O)C2(CCN(C(=O)COC)CC2)c2ccccc21 | inactive
60 | O=C(NCCc1c[nH]c2ccccc12)c1cnc2c(c1)N(C(=O)CCc1ccccc1)CCC2 | inconclusive: 50.1 µM [inhibitor, partial curve, poor fit]
61 | Cc1cccc(CN2CCCC(O)(CNCC(C)(C)C)C2=O)c1 (centres undefined) | inactive
62 | CN1CCCCCCN(Cc2cn(C)c3ccccc23)[C@H]2CCC[C@H]2C1=O | inconclusive: 20 µM [inhibitor, full curve, poor fit]
63 | Cc1ccsc1CN1CCCCCCNC(=O)[C@@H]2CCC[C@@H]21 | inconclusive: 89.1 µM [inhibitor, partial curve, poor fit]
64 | COc1ccc(C(CC(=O)NCCc2ccc(OC)c(OC)c2)c2c[nH]c3ccccc23)c(OC)c1 (centres undefined) | inconclusive: 31.6 µM [inhibitor, partial curve, poor fit]
